Results are given in words; binding and its absence hold for the method and conditions named. Some results given as binding are weak or reduced against the parent protein; the word gives no strength. For some of these results: Sequences can lack the tags named with a protein.
What was measured:
Assay in all cases: cell aggregation assay; S2 cells transfected separately, mixed after the medium change, induced with 0.5 mM CuSO4 and gently shaken for several hours; aggregates seen by phase contrast and fluorescence microscopy
[1] = target: T1, Necl-3-GFP (Necl-3/SynCAM-2 carboxy-terminally fused to GFP) (UniProt Q8N3J6)
T1 sequence: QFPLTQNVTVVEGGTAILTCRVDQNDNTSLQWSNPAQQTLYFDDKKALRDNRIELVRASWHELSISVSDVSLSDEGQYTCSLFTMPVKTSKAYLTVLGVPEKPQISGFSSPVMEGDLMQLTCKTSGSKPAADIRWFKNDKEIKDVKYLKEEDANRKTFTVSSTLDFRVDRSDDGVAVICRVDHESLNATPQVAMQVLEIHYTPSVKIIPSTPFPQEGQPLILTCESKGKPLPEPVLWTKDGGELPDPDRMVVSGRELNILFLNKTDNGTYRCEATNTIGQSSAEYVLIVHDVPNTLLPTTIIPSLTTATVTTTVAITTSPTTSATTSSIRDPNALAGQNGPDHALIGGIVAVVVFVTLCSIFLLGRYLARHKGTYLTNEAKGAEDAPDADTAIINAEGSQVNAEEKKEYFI

[2] = target: T2, Necl-3-myc (myc-tagged Necl-3) (UniProt Q8N3J6)
T2 sequence: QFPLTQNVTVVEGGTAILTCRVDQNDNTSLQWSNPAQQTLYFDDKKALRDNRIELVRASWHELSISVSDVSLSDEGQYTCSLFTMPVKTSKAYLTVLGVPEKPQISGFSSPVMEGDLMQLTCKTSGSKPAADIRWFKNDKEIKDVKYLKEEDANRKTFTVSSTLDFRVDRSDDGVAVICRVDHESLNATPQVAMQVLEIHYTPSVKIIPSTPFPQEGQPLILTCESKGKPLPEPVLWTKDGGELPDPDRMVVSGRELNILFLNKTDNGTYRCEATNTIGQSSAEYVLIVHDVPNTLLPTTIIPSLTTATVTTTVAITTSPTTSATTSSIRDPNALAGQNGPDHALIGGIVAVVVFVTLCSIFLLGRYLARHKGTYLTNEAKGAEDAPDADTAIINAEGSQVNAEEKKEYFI

Necl-3-DsRed = Necl-3-DsRed (UniProt Q8N3J6)
ALCAM-GFP = target: T3, ALCAM-GFP (UniProt Q13740)
T3 sequence: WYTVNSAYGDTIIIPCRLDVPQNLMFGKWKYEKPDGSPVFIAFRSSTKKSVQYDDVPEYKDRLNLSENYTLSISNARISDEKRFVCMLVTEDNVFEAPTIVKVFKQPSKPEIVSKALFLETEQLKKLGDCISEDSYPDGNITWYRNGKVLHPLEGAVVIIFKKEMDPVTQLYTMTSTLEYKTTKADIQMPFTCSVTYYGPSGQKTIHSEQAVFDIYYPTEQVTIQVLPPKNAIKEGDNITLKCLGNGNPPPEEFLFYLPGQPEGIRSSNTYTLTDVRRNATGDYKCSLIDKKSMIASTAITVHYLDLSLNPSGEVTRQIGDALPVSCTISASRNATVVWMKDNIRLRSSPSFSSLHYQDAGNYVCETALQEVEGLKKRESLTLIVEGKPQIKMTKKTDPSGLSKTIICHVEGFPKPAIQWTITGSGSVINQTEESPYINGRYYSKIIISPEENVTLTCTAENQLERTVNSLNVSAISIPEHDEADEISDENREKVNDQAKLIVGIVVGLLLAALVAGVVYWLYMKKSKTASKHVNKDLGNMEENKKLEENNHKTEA

Binder	binding [1]	binding (ALCAM-GFP)	also measured
Necl-3-GFP (Necl-3/SynCAM-2 carboxy-terminally fused to GFP) (protein, UniProt Q8N3J6 25-435) QFPLTQNVTVVEGGTAILTCRVDQNDNTSLQWSNPAQQTLYFDDKKALRDNRIELVRASWHELSISVSDVSLSDEGQYTCSLFTMPVKTSKAYLTVLGVPEKPQISGFSSPVMEGDLMQLTCKTSGSKPAADIRWFKNDKEIKDVKYLKEEDANRKTFTVSSTLDFRVDRSDDGVAVICRVDHESLNATPQVAMQVLEIHYTPSVKIIPSTPFPQEGQPLILTCESKGKPLPEPVLWTKDGGELPDPDRMVVSGRELNILFLNKTDNGTYRCEATNTIGQSSAEYVLIVHDVPNTLLPTTIIPSLTTATVTTTVAITTSPTTSATTSSIRDPNALAGQNGPDHALIGGIVAVVVFVTLCSIFLLGRYLARHKGTYLTNEAKGAEDAPDADTAIINAEGSQVNAEEKKEYFI	binds	–	–
Necl-1-DsRed (protein, UniProt Q8N126 25-398) NLSQDDSQPWTSDETVVAGGTVVLKCQVKDHEDSSLQWSNPAQQTLYFGEKRALRDNRIQLVTSTPHELSISISNVALADEGEYTCSIFTMPVRTAKSLVTVLGIPQKPIITGYKSSLREKDTATLNCQSSGSKPAARLTWRKGDQELHGEPTRIQEDPNGKTFTVSSSVTFQVTREDDGASIVCSVNHESLKGADRSTSQRIEVLYTPTAMIRPDPPHPREGQKLLLHCEGRGNPVPQQYLWEKEGSVPPLKMTQESALIFPFLNKSDSGTYGCTATSNMGSYKAYYTLNVNDPSPVPSSSSTYHAIIGGIVAFIVFLLLIMLIFLGHYLIRHKGTYLTHEAKGSDDAPDADTAIINAEGGQSGGDDKKEYFI	binds	–	–
Necl-4-DsRed (protein, UniProt Q8NFZ8 21-388) PGAGQEVQTENVTVAEGGVAEITCRLHQYDGSIVVIQNPARQTLFFNGTRALKDERFQLEEFSPRRVRIRLSDARLEDEGGYFCQLYTEDTHHQIATLTVLVAPENPVVEVREQAVEGGEVELSCLVPRSRPAATLRWYRDRKELKGVSSSQENGKVWSVASTVRFRVDRKDDGGIIICEAQNQALPSGHSKQTQYVLDVQYSPTARIHASQAVVREGDTLVLTCAVTGNPRPNQIRWNRGNESLPERAEAVGETLTLPGLVSADNGTYTCEASNKHGHARALYVLVVYDPGAVVEAQTSVPYAIVGGILALLVFLIICVLVGMVWCSVRQKGSYLTHEASGLDEQGEAREAFLNGSDGHKRKEEFFI	binds	–	–
Necl-2-GFP (protein, UniProt Q9BY67 45-442) QNLFTKDVTVIEGEVATISCQVNKSDDSVIQLLNPNRQTIYFRDFRPLKDSRFQLLNFSSSELKVSLTNVSISDEGRYFCQLYTDPPQESYTTITVLVPPRNLMIDIQKDTAVEGEEIEVNCTAMASKPATTIRWFKGNTELKGKSEVEEWSDMYTVTSQLMLKVHKEDDGVPVICQVEHPAVTGNLQTQRYLEVQYKPQVHIQMTYPLQGLTREGDALELTCEAIGKPQPVMVTWVRVDDEMPQHAVLSGPNLFINNLNKTDNGTYRCEASNIVGKAHSDYMLYVYDPPTTIPPPTTTTTTTTTTTTTILTIITDSRAGEEGSIRAVDHAVIGGVVAVVVFAMLCLLIILGRYFARHKGTYFTHEAKGADDAADADTAIINAEGGQNNSEEKKEYFI	–	–	binding [2]: binds
Necl-3-DsRed (protein, UniProt Q8N3J6 25-435) QFPLTQNVTVVEGGTAILTCRVDQNDNTSLQWSNPAQQTLYFDDKKALRDNRIELVRASWHELSISVSDVSLSDEGQYTCSLFTMPVKTSKAYLTVLGVPEKPQISGFSSPVMEGDLMQLTCKTSGSKPAADIRWFKNDKEIKDVKYLKEEDANRKTFTVSSTLDFRVDRSDDGVAVICRVDHESLNATPQVAMQVLEIHYTPSVKIIPSTPFPQEGQPLILTCESKGKPLPEPVLWTKDGGELPDPDRMVVSGRELNILFLNKTDNGTYRCEATNTIGQSSAEYVLIVHDVPNTLLPTTIIPSLTTATVTTTVAITTSPTTSATTSSIRDPNALAGQNGPDHALIGGIVAVVVFVTLCSIFLLGRYLARHKGTYLTNEAKGAEDAPDADTAIINAEGSQVNAEEKKEYFI	–	no binding	binding (Necl-3-DsRed): binds
ALCAM-GFP (protein, UniProt Q13740 28-583) WYTVNSAYGDTIIIPCRLDVPQNLMFGKWKYEKPDGSPVFIAFRSSTKKSVQYDDVPEYKDRLNLSENYTLSISNARISDEKRFVCMLVTEDNVFEAPTIVKVFKQPSKPEIVSKALFLETEQLKKLGDCISEDSYPDGNITWYRNGKVLHPLEGAVVIIFKKEMDPVTQLYTMTSTLEYKTTKADIQMPFTCSVTYYGPSGQKTIHSEQAVFDIYYPTEQVTIQVLPPKNAIKEGDNITLKCLGNGNPPPEEFLFYLPGQPEGIRSSNTYTLTDVRRNATGDYKCSLIDKKSMIASTAITVHYLDLSLNPSGEVTRQIGDALPVSCTISASRNATVVWMKDNIRLRSSPSFSSLHYQDAGNYVCETALQEVEGLKKRESLTLIVEGKPQIKMTKKTDPSGLSKTIICHVEGFPKPAIQWTITGSGSVINQTEESPYINGRYYSKIIISPEENVTLTCTAENQLERTVNSLNVSAISIPEHDEADEISDENREKVNDQAKLIVGIVVGLLLAALVAGVVYWLYMKKSKTASKHVNKDLGNMEENKKLEENNHKTEA	–	binds	–

— PMC2176061
